Experimental data reported in the antibiotic and cytotoxicity screens of Wong et al. (2023).
Some of the results follow.

Each compound was assayed on HepG2 (assay: cytotoxicity call (relative viability < 0.9)). Conditions: 10 µM.

SMILES | cytotoxicity call
Cc1noc(C)c1NC(=O)N(C)C[C@@H]1Oc2cc(C#CCN(C)C)ccc2S(=O)(=O)N([C@@H](C)CO)C[C@@H]1C | inactive
O=C(NCC[C@H]1CC[C@@H](NS(=O)(=O)c2cccc(F)c2)[C@H](CO)O1)C1CC1 | inactive
C[C@H](CO)N1C[C@H](C)[C@@H](CN(C)S(=O)(=O)c2cn(C)cn2)Oc2ccc(NC(=O)CCN3CCOCC3)cc2CC1=O | inactive
COc1ccc(NC(=O)N(C)C[C@H]2Oc3ccc(NC(=O)Nc4cccc5ccccc45)cc3CC(=O)N([C@H](C)CO)C[C@@H]2C)cc1 | inactive
C[C@H]1CN([C@@H](C)CO)C(=O)c2cc(NC(=O)Nc3cccc4ccccc34)ccc2O[C@H]1CN(C)C(=O)NC1CCCCC1 | inactive
C[C@H]1CN([C@@H](C)CO)C(=O)Cc2cc(NS(=O)(=O)c3ccc(F)cc3)ccc2O[C@@H]1CN(C)S(=O)(=O)c1cn(C)cn1 | inactive
C[C@@H]1CCCCO[C@@H](CN(C)Cc2ccncc2)[C@H](C)CN([C@H](C)CO)C(=O)c2cc(NC(=O)Cc3ccccc3)ccc2O1 | inactive
CS(=O)(=O)Nc1ccc2c(c1)[C@@H]1C[C@H](CC(=O)NCC3CC3)O[C@@H](CO)[C@@H]1O2 | inactive
O=C(C[C@@H]1CC[C@H](NC(=O)Cc2ccccn2)[C@H](CO)O1)NCCc1ccncc1 | inactive
COCCOC(=O)C1=C(C)NC(C)=C(C(=O)OC(C)C)C1c1cccc([N+](=O)[O-])c1 (stereo not given) | inactive
Cc1noc(C)c1NC(=O)N(C)C[C@H]1OCCCC[C@@H](C)Oc2ccc(NC(=O)Nc3ccc(F)cc3)cc2C(=O)N([C@H](C)CO)C[C@@H]1C | inactive
C[C@@H]1CCCCO[C@H](CN(C)Cc2ccncc2)[C@@H](C)CN([C@H](C)CO)C(=O)c2cc(NC(=O)c3ccccc3)ccc2O1 | inactive
CC(C)C(=O)Nc1cccc(Cl)c1 | inactive
COC[C@H]1CN(C(=O)c2ccccn2)N1 | inactive
C[C@@H]1CN([C@@H](C)CO)C(=O)c2cc(NS(=O)(=O)c3ccc(Cl)cc3)ccc2O[C@@H](C)CCCCO[C@H]1CN(C)CC1CC1 | inactive
C[C@H]1CN([C@@H](C)CO)C(=O)c2cc(NC(=O)Cn3cnnn3)ccc2O[C@H]1CN(C)S(=O)(=O)c1cn(C)cn1 | inactive
CS(=O)(=O)N1C[C@H]2C[C@@H](F)[C@H](O)[C@@H]2C1 | inactive
C[C@@H]1CCCCO[C@H](CN(C)C(=O)Nc2ccccc2)[C@H](C)CN([C@@H](C)CO)C(=O)c2cc(NC(=O)Nc3ccc(F)cc3)ccc2O1 | inactive
O=C(O[C@H](Cc1ccc(O)c(O)c1)C(=O)O)[C@H]1[C@H](C(=O)O[C@@H](Cc2ccc(O)c(O)c2)C(=O)O)[C@H](c2ccc(O)c(O)c2)[C@@H]1c1ccc(O)c(O)c1 | inactive
COc1ccc(NC(=O)N(C)C[C@H]2Oc3ccc(NC(=O)CCCCCC(=O)Nc4ccccc4N)cc3CC(=O)N([C@@H](C)CO)C[C@@H]2C)cc1 | inactive

SMILES | cytotoxicity call
C[C@@H]1CN([C@H](C)CO)C(=O)c2cccc(NC(=O)Nc3cccc4ccccc34)c2O[C@@H]1CN(C)Cc1ccncc1 | inactive
C[C@H](CO)N1C[C@H](C)[C@H](CN(C)C(=O)Nc2cccc3ccccc23)Oc2ncc(-c3ccc(F)cc3)cc2C1=O | inactive
CO[C@H]1CN(C)C(=O)c2cc(NS(=O)(=O)c3cn(C)cn3)ccc2OC[C@@H](C)N(CCC(F)(F)F)C[C@@H]1C | inactive
C[C@@H]1CN([C@@H](C)CO)C(=O)Cc2cc(NS(=O)(=O)c3ccc(F)cc3)ccc2O[C@@H]1CN(C)Cc1ccc(Cl)c(Cl)c1 | active
C[C@@H]1CCCCO[C@@H](CN(C)Cc2ccc(C(=O)O)cc2)[C@@H](C)CN([C@@H](C)CO)C(=O)c2cc(NC(=O)Nc3ccc4c(c3)OCO4)ccc2O1 | inactive
C[C@H]1CN([C@@H](C)CO)C(=O)c2cc(/C=C/c3ccccc3)cnc2O[C@H]1CN(C)C(=O)Nc1ccc(C(F)(F)F)cc1 | inactive
Cc1cccc(S(=O)(=O)N2C[C@@H](O)COC[C@@H]3O[C@@H](CC(=O)NCc4ccncn4)CC[C@H]32)c1 | inactive
NC(=O)C[n+]1cccc2ccccc21 | inactive
Cc1noc(C)c1NC(=O)Nc1ccc2c(c1)C(=O)N([C@H](C)CO)C[C@H](C)[C@H](CN(C)C(=O)Nc1ccccc1)OCCCC[C@H](C)O2 | inactive
COc1cccc(S(=O)(=O)N(C)C[C@@H]2Oc3cc(C#CCN(C)C)ccc3S(=O)(=O)N([C@H](C)CO)C[C@@H]2C)c1 | inactive
C[C@H]1CN([C@@H](C)CO)S(=O)(=O)c2ccc(C#CCN(C)C)cc2O[C@@H]1CN(C)S(=O)(=O)c1cccc(F)c1 | inactive
C[C@@H]1CN([C@H](C)CO)C(=O)c2cccc(NC(=O)Nc3ccc(C(F)(F)F)cc3)c2O[C@H]1CN(C)C(=O)Nc1ccc2c(c1)OCO2 | inactive
O=C(NO)c1cccc(C(=O)N/N=C/[C@H](O)[C@@H](O)[C@@H](O)[C@H](O)CO)c1 | inactive
C[C@@H]1CN([C@H](C)CO)S(=O)(=O)c2ccc(C#CCN(C)C)cc2O[C@H]1CN(C)Cc1ccc(F)cc1 | active
COc1ccc(-c2cc(=O)c3c(OC)c(OC)c(OC)c(OC)c3o2)cc1OC | inactive
Cn1c(Nc2ccc(C(F)(F)F)cc2)nc2cc(Oc3ccnc(-c4ncc(C(F)(F)F)[nH]4)c3)ccc21 | active
C[C@H](CO)N1C[C@H](C)[C@H](CN(C)Cc2ccc(Cl)c(Cl)c2)OCCCC[C@H](C)Oc2ccc(NC(=O)Nc3ccc(F)cc3)cc2C1=O | active
FC(F)(F)COCC(F)(F)F | inactive
C[C@@H]1CCCCO[C@@H](CN(C)C)[C@H](C)CN([C@H](C)CO)C(=O)c2cc(NC(=O)CCCCCC(=O)Nc3ccccc3N)ccc2O1 | inactive
C[C@@H]1CN([C@H](C)CO)C(=O)c2cc(NS(=O)(=O)c3ccc(F)cc3)ccc2O[C@@H](C)CCCCO[C@@H]1CN(C)C(=O)c1ccccc1 | inactive
